Source: US7592316B2, “Peptides as NS3-serine protease inhibitors of hepatitis C virus” (Schering Corporation, priority 2000, dated 2009)

Target: HCV NS3/NS4A protease (strain 1a) (Hepatitis C virus genotype 1a, UniProt P27958)
Test: biochemical
Settings: Compounds prepared by Solid Phase Synthesis, Table 3; read-out: Ki* CLASS

| SMILES | Ki |
| --- | --- |
| CCCC(NC(=O)[C@@H]1C[C@@H](OCc2ccccc2)CN1C(=O)C(NC(=O)OCC(C)C)C1CCCCC1)C(=O)C(=O)NCC(=O)NC(C(=O)O)c1ccccc1 (stereo partly shown) (Isobutyloxycarbonyl-[ξChg][Hyp](Bn)[X2]G[ξPhg]-OH) | 0.001 to 0.1 µM |
| CCCC(NC(=O)[C@@H]1C[C@@H](OCc2ccccc2)CN1C(=O)C(NC(=O)OCC(C)C)C1CCCCC1)C(=O)C(=O)NCC(=O)NC(COC(C)(C)C)C(N)=O (stereo partly shown) (Isobutyloxycarbonyl-[ξChg][Hyp](Bn)[X2]G[ξS](tBu)-NH2) | 0.101 to 1 µM |
| CCCCC(NC(=O)CNC(=O)C(=O)C(CCC)NC(=O)[C@@H]1C[C@@H](OCC(=O)OC(C)(C)C)CN1C(=O)C(NC(=O)OCC(C)C)C1CCCCC1)C(N)=O (stereo partly shown) (Isobutyloxycarbonyl-[ξChg][Hyp](CH2CO2tBu)[X2]G[ξNle]-NH2) | 0.101 to 1 µM |
| CCCC(NC(=O)[C@@H]1C[C@@H](OCC(=O)OC(C)(C)C)CN1C(=O)C(NC(=O)OCC(C)C)C1CCCCC1)C(=O)C(=O)NCC(=O)NC(C(N)=O)c1ccccc1 (stereo partly shown) (Isobutyloxycarbonyl-[ξChg][Hyp](CH2CO2tBu)[X2]G[ξPhg]-NH2) | 0.001 to 0.1 µM |
| CCCC(NC(=O)[C@@H]1C[C@@H](OCC(=O)OC(C)(C)C)CN1C(=O)C(NC(=O)OCC(C)C)C1CCCCC1)C(=O)C(=O)NCC(=O)NC(COC(C)(C)C)C(N)=O (stereo partly shown) (Isobutyloxycarbonyl-[ξChg][Hyp](CH2CO2tBu)[X2]G[ξS](tBu)-NH2) | 0.101 to 1 µM |
| CCCCC(NC(=O)CNC(=O)C(=O)C(CCC)NC(=O)[C@@H]1C[C@@H](OC(C)(C)C)CN1C(=O)C(NC(=O)OCC(C)C)C1CCCCC1)C(N)=O (stereo partly shown) (Isobutyloxycarbonyl-[ξChg][Hyp](tBu)[X2]G[ξNle]-NH2) | 0.101 to 1 µM |
| CCCC(NC(=O)[C@@H]1C[C@@H](OC(C)(C)C)CN1C(=O)C(NC(=O)OCC(C)C)C1CCCCC1)C(=O)C(=O)NCC(=O)NC(C(N)=O)c1ccccc1 (stereo partly shown) (Isobutyloxycarbonyl-[ξChg][Hyp](tBu)[X2]G[ξPhg]-NH2) | 0.001 to 0.1 µM |
| CCCC(NC(=O)[C@@H]1C[C@@H](OC(C)(C)C)CN1C(=O)C(NC(=O)OCC(C)C)C1CCCCC1)C(=O)C(=O)NCC(=O)NC(COC(C)(C)C)C(N)=O (stereo partly shown) (Isobutyloxycarbonyl-[ξChg][Hyp](tBu)[X2]G[ξS](tBu)-NH2) | 0.101 to 1 µM |
| CCCCC(NC(=O)CNC(=O)C(=O)C(CCC)NC(=O)[C@@H]1Cc2ccccc2CN1C(=O)C(NC(=O)OCC(C)C)C1CCCCC1)C(N)=O (stereo partly shown) (Isobutyloxycarbonyl-[ξChg][Tic][X2]G[ξNle]-NH2) | > 1 µM |
| CCCC(NC(=O)[C@@H]1Cc2ccccc2CN1C(=O)C(NC(=O)OCC(C)C)C1CCCCC1)C(=O)C(=O)NCC(=O)NC(COC(C)(C)C)C(N)=O (stereo partly shown) (Isobutyloxycarbonyl-[ξChg][Tic][X2]G[ξS](tBu)-NH2) | > 1 µM |
| CCCC(NC(=O)[C@@H]1CCCN1C(=O)C(NC(=O)OCC(C)C)C(C)C)C(=O)C(=O)NCC(=O)NC(Cc1ccc2ccccc2c1)C(N)=O (stereo partly shown) (Isobutyloxycarbonyl-[ξV]P[X2]G[ξ2Nal]-NH2) | > 1 µM |
| CCCC(NC(=O)[C@@H]1CCCN1C(=O)C(NC(=O)OCC(C)C)C(C)C)C(=O)C(=O)NCC(=O)NC(CCCC(=O)O)C(N)=O (stereo partly shown) (Isobutyloxycarbonyl-[ξV]P[X2]G[ξAad]-NH2) | > 1 µM |
| CCCC(NC(=O)[C@@H]1CCCN1C(=O)C(NC(=O)OCC(C)C)C(C)C)C(=O)C(=O)NCC(=O)NC(CC1CCCCC1)C(N)=O (stereo partly shown) (Isobutyloxycarbonyl-[ξV]P[X2]G[ξCha]-NH2) | > 1 µM |
| CCCC(NC(=O)[C@@H]1CCCN1C(=O)C(NC(=O)OCC(C)C)C(C)C)C(=O)C(=O)NCC(=O)NC(C(N)=O)C1CCCCC1 (stereo partly shown) (Isobutyloxycarbonyl-[ξV]P[X2]G[ξChg]-NH2) | > 1 µM |
| CCCC(NC(=O)[C@@H]1CCCN1C(=O)C(NC(=O)OCC(C)C)C(C)C)C(=O)C(=O)NCC(=O)NC(Cc1ccccc1)C(N)=O (stereo partly shown) (Isobutyloxycarbonyl-[ξV]P[X2]G[ξF]-NH2) | > 1 µM |
| CCCC(NC(=O)[C@@H]1CCCN1C(=O)C(NC(=O)OCC(C)C)C(C)C)C(=O)C(=O)NCC(=O)NC(CCCCN)C(N)=O (stereo partly shown) (Isobutyloxycarbonyl-[ξV]P[X2]G[ξK]-NH2) | > 1 µM |
| CCCC(NC(=O)[C@@H]1CCCN1C(=O)C(NC(=O)OCC(C)C)C(C)C)C(=O)C(=O)NCC(=O)NC(CC(C)C)C(N)=O (stereo partly shown) (Isobutyloxycarbonyl-[ξV]P[X2]G[ξL]-NH2) | > 1 µM |
| CCCC(NC(=O)[C@@H]1CCCN1C(=O)C(NC(=O)OCC(C)C)C(C)C)C(=O)C(=O)NCC(=O)NC(C(N)=O)c1ccccc1 (stereo partly shown) (Isobutyloxycarbonyl-[ξV]P[X2]G[ξPhg]-NH2) | > 1 µM |
| CCCC(NC(=O)[C@@H]1CCCN1C(=O)C(NC(=O)OCC(C)C)C(C)C)C(=O)C(=O)NCC(=O)NC(COCc1ccccc1)C(N)=O (stereo partly shown) (Isobutyloxycarbonyl-[ξV]P[X2]G[ξS](Bn)-NH2) | > 1 µM |
| CCCC(NC(=O)[C@@H]1CCCN1C(=O)C(NC(=O)OCC(C)C)C(C)C)C(=O)C(=O)NCC(=O)NC(C(N)=O)C(C)(C)C (stereo partly shown) (Isobutyloxycarbonyl-[ξV]P[X2]G[ξTle]-NH2) | > 1 µM |

| SMILES | Ki |
| --- | --- |
| CCCC(NC(=O)[C@@H]1CCCN1C(=O)C(NC(=O)OCC(C)C)C(C)C)C(=O)C(=O)NCC(=O)NC(CCc1ccccc1)C(N)=O (stereo partly shown) (Isobutyloxycarbonyl-[ξV]P[X2]G[ξhPhe]-NH2) | > 1 µM |
| CCCC(NC(=O)[C@@H]1CCCN1C(=O)C(NC(=O)OCC(C)C)C(C)C)C(=O)C(=O)NCC(=O)NC(CCO)C(N)=O (stereo partly shown) (Isobutyloxycarbonyl-[ξV]P[X2]G[ξhSer]-NH2) | > 1 µM |
| CCCC(NC(=O)[C@@H]1C[C@@H](OCc2ccccc2)CN1C(=O)C(NC(=O)OCC(C)C)C(C)C)C(=O)C(=O)NCC(=O)NC(Cc1ccc2ccccc2c1)C(N)=O (stereo partly shown) (Isobutyloxycarbonyl-[ξV][Hyp](Bn)[X2]G[ξ2Nal]-NH2) | > 1 µM |
| CCCC(NC(=O)[C@@H]1C[C@@H](OCc2ccccc2)CN1C(=O)C(NC(=O)OCC(C)C)C(C)C)C(=O)C(=O)NCC(=O)NC(CCCC(=O)O)C(N)=O (stereo partly shown) (Isobutyloxycarbonyl-[ξV][Hyp](Bn)[X2]G[ξAad]-NH2) | > 1 µM |
| CCCC(NC(=O)[C@@H]1C[C@@H](OCc2ccccc2)CN1C(=O)C(NC(=O)OCC(C)C)C(C)C)C(=O)C(=O)NCC(=O)NC(CC1CCCCC1)C(N)=O (stereo partly shown) (Isobutyloxycarbonyl-[ξV][Hyp](Bn)[X2]G[ξCha]-NH2) | > 1 µM |
| CCCC(NC(=O)[C@@H]1C[C@@H](OCc2ccccc2)CN1C(=O)C(NC(=O)OCC(C)C)C(C)C)C(=O)C(=O)NCC(=O)NC(C(N)=O)C1CCCCC1 (stereo partly shown) (Isobutyloxycarbonyl-[ξV][Hyp](Bn)[X2]G[ξChg]-NH2) | 0.101 to 1 µM |
| CCCC(NC(=O)[C@@H]1C[C@@H](OCc2ccccc2)CN1C(=O)C(NC(=O)OCC(C)C)C(C)C)C(=O)C(=O)NCC(=O)NC(Cc1ccccc1)C(N)=O (stereo partly shown) (Isobutyloxycarbonyl-[ξV][Hyp](Bn)[X2]G[ξF]-NH2) | > 1 µM |
| CCCC(NC(=O)[C@@H]1C[C@@H](OCc2ccccc2)CN1C(=O)C(NC(=O)OCC(C)C)C(C)C)C(=O)C(=O)NCC(=O)NC(CCCCN)C(N)=O (stereo partly shown) (Isobutyloxycarbonyl-[ξV][Hyp](Bn)[X2]G[ξK]-NH2) | > 1 µM |
| CCCC(NC(=O)[C@@H]1C[C@@H](OCc2ccccc2)CN1C(=O)C(NC(=O)OCC(C)C)C(C)C)C(=O)C(=O)NCC(=O)NC(CC(C)C)C(N)=O (stereo partly shown) (Isobutyloxycarbonyl-[ξV][Hyp](Bn)[X2]G[ξL]-NH2) | > 1 µM |
| CCCC(NC(=O)[C@@H]1C[C@@H](OCc2ccccc2)CN1C(=O)C(NC(=O)OCC(C)C)C(C)C)C(=O)C(=O)NCC(=O)NC(C(N)=O)c1ccccc1 (stereo partly shown) (Isobutyloxycarbonyl-[ξV][Hyp](Bn)[X2]G[ξPhg]-NH2) | 0.101 to 1 µM |
| CCCC(NC(=O)[C@@H]1C[C@@H](OCc2ccccc2)CN1C(=O)C(NC(=O)OCC(C)C)C(C)C)C(=O)C(=O)NCC(=O)NC(COCc1ccccc1)C(N)=O (stereo partly shown) (Isobutyloxycarbonyl-[ξV][Hyp](Bn)[X2]G[ξS](Bn)-NH2) | > 1 µM |
| CCCC(NC(=O)[C@@H]1C[C@@H](OCc2ccccc2)CN1C(=O)C(NC(=O)OCC(C)C)C(C)C)C(=O)C(=O)NCC(=O)NC(C(N)=O)C(C)(C)C (stereo partly shown) (Isobutyloxycarbonyl-[ξV][Hyp](Bn)[X2]G[ξTle]-NH2) | > 1 µM |
| CCCC(NC(=O)[C@@H]1C[C@@H](OCc2ccccc2)CN1C(=O)C(NC(=O)OCC(C)C)C(C)C)C(=O)C(=O)NCC(=O)NC(CCc1ccccc1)C(N)=O (stereo partly shown) (Isobutyloxycarbonyl-[ξV][Hyp](Bn)[X2]G[ξhPhe]-NH2) | > 1 µM |
| CCCC(NC(=O)[C@@H]1C[C@@H](OCc2ccccc2)CN1C(=O)C(NC(=O)OCC(C)C)C(C)C)C(=O)C(=O)NCC(=O)NC(CCO)C(N)=O (stereo partly shown) (Isobutyloxycarbonyl-[ξV][Hyp](Bn)[X2]G[ξhSer]-NH2) | > 1 µM |
| CCCC(NC(=O)[C@@H]1C[C@@H](OCC(=O)O)CN1C(=O)C(NC(=O)OCC(C)C)C(C)C)C(=O)C(=O)NCC(=O)NC(Cc1ccc2ccccc2c1)C(N)=O (stereo partly shown) (Isobutyloxycarbonyl-[ξV][Hyp](Carboxymethyl)[X2]G[ξ2Nal]-NH2) | > 1 µM |
| CCCC(NC(=O)[C@@H]1C[C@@H](OCC(=O)O)CN1C(=O)C(NC(=O)OCC(C)C)C(C)C)C(=O)C(=O)NCC(=O)NC(CCCC(=O)O)C(N)=O (stereo partly shown) (Isobutyloxycarbonyl-[ξV][Hyp](Carboxymethyl)[X2]G[ξAad]-NH2) | > 1 µM |
| CCCC(NC(=O)[C@@H]1C[C@@H](OCC(=O)O)CN1C(=O)C(NC(=O)OCC(C)C)C(C)C)C(=O)C(=O)NCC(=O)NC(CC1CCCCC1)C(N)=O (stereo partly shown) (Isobutyloxycarbonyl-[ξV][Hyp](Carboxymethyl)[X2]G[ξCha]-NH2) | > 1 µM |
| CCCC(NC(=O)[C@@H]1C[C@@H](OCC(=O)O)CN1C(=O)C(NC(=O)OCC(C)C)C(C)C)C(=O)C(=O)NCC(=O)NC(C(N)=O)C1CCCCC1 (stereo partly shown) (Isobutyloxycarbonyl-[ξV][Hyp](Carboxymethyl)[X2]G[ξChg]-NH2) | > 1 µM |
| CCCC(NC(=O)[C@@H]1C[C@@H](OCC(=O)O)CN1C(=O)C(NC(=O)OCC(C)C)C(C)C)C(=O)C(=O)NCC(=O)NC(Cc1ccccc1)C(N)=O (stereo partly shown) (Isobutyloxycarbonyl-[ξV][Hyp](Carboxymethyl)[X2]G[ξF]-NH2) | > 1 µM |

Same assay, conditions: Table 4; HCV NS3/NS4A protease, spectrophotometric assay, 30° C., pH 6.5; read-out: Ki* Range

| SMILES | Ki |
| --- | --- |
| CCCC(NC(=O)[C@@H]1CC(C)(C)CN1C(=O)C(NC(=O)OCC(C)C)[C@@H](C)c1ccccc1)C(=O)C(=O)NCC(=O)N[C@H](C(=O)N(C)C)c1ccccc1 (stereo partly drawn) (Isobutyloxycarbonyl-[ξPhe(3S-Me)][Pro(4,4-Me2)][X2]G[Phg]-NMe2) | 0.001 to 0.1 µM |

*1 amine or outer side, *2 acyl side, *3 side chain or, on linkers, in order; H or OH if unused. Where a SMILES comes first, the peptide text is derived from it. [ ]: non-standard residue; d: D form. The star is where a group is joined. ξ: configuration not given here. ξPhe(3S-Me) = C[C@@H](c1ccccc1)C(N)C(=O)O; Pro(4,4-Me2) = CC1(C)CN[C@H](C(=O)O)C1; Isobutyloxycarbonyl = CC(C)COC(=O)*; ξ2Nal = NC(Cc1ccc2ccccc2c1)C(=O)O; Hyp = O=C(O)[C@@H]1C[C@@H](O)CN1; X2 = CCCC(N[*:1])C(=O)C(=O)[*:2]; Tic = O=C(O)[C@@H]1Cc2ccccc2CN1; CH2CO2tBu = CC(C)(C)OC(=O)C*; Phg = N[C@H](C(=O)O)c1ccccc1; ξhPhe = NC(CCc1ccccc1)C(=O)O; ξAad = NC(CCCC(=O)O)C(=O)O; ξCha = NC(CC1CCCCC1)C(=O)O; ξChg = NC(C(=O)O)C1CCCCC1; ξPhg = NC(C(=O)O)c1ccccc1; ξTle = CC(C)(C)C(N)C(=O)O; Carboxymethyl = O=C(O)C*; ξF = NC(Cc1ccccc1)C(=O)O; ξL = CC(C)CC(N)C(=O)O; ξNle = CCCCC(N)C(=O)O; ξhSer = NC(CCO)C(=O)O; ξK = NCCCCC(N)C(=O)O; ξV = CC(C)C(N)C(=O)O; Bn = c1ccc(C*)cc1; ξS = NC(CO)C(=O)O; tBu = CC(C)(C)*
